Measurements published in the supplement of paper PMC4604168 (melanoma cell lines).
The other results are listed elsewhere or left out. Many values rest on one well or one pass, so single values are uncertain.

What was measured:
Assay in all cases: cell count relative to DMSO control; melanoma cells; higher = more viable cells
Conditions in all cases: library dose: low library concentration; 72 h
COLO792 = system: COLO792
COLO800 = system: COLO800
COLO829 = system: COLO829
G361 = system: G361
IPC-298 = system: IPC-298
IST-MEL1 = system: IST-MEL1
LB2518-MEL = system: LB2518-MEL
LOXIMVI = system: LOXIMVI
MEL-HO = system: MEL-HO
MZ2-MEL = system: MZ2-MEL
MeWo = system: MeWo
RPMI7951 = system: RPMI7951
RVH-421 = system: RVH-421
SkMel28 = system: SkMel28
SkMel2 = system: SkMel2
SkMel30 = system: SkMel30
SkMel5 = system: SkMel5
UACC257 = system: UACC257
UACC62 = system: UACC62
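Note: cell number obtained by counting DAPI-stained nuclei in high-throughput microscope images with image analysis software, screen run in 1,536-well plates.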

| SMILES | cell count (COLO792) [%] | cell count (COLO800) [%] | cell count (COLO829) [%] | cell count (G361) [%] | cell count (IPC-298) [%] | cell count (IST-MEL1) [%] | cell count (LB2518-MEL) [%] | cell count (LOXIMVI) [%] | cell count (MEL-HO) [%] | cell count (MZ2-MEL) [%] | cell count (MeWo) [%] | cell count (RPMI7951) [%] | cell count (RVH-421) [%] | cell count (SkMel28) [%] | cell count (SkMel2) [%] | cell count (SkMel30) [%] | cell count (SkMel5) [%] | cell count (UACC257) [%] | cell count (UACC62) [%] |
| --- | --- | --- | --- | --- | --- | --- | --- | --- | --- | --- | --- | --- | --- | --- | --- | --- | --- | --- | --- |
| CN(C)S(=O)(=O)c1ccc2c(c1)/C(=C/c1cc3c([nH]1)CCCC3)C(=O)N2 + NCC(=O)Nc1ccc(-n2nc(C(F)(F)F)cc2-c2ccc3c(ccc4ccccc43)c2)cc1 [OSU03012] (first compound 0.4 µM, partner dose 1 µM) | 87.8 | 102 | 73.5 | 79.5 | 92.6 | 85.4 | 118 | 119 | 86.9 | 108 | 58.2 | 95 | 84.2 | 76.2 | 67.7 | 50.8 | 95.8 | 79.5 | 80.9 |
| Cc1nc(Nc2ncc(C(=O)Nc3c(C)cccc3Cl)s2)cc(N2CCN(CCO)CC2)n1 [dasatanib] + CO[C@@H]1[C@H](N(C)C(=O)c2ccccc2)C[C@H]2O[C@]1(C)n1c3ccccc3c3c4c(c5c6ccccc6n2c5c31)C(=O)NC4 [Midostaurin] (first compound 0.004 µM, partner dose 0.08 µM) | 64.6 | 76 | 73.1 | 86.5 | 91.4 | 81.9 | 88.9 | 36.1 | 84.3 | 71.7 | 72 | 64 | 87.1 | 90.1 | 82.6 | 94.1 | 87.2 | 56.4 | 81.1 |
| OCCn1cc(-c2cnc3nnn(Cc4ccc5ncccc5c4)c3n2)cn1 + NCC(=O)Nc1ccc(-n2nc(C(F)(F)F)cc2-c2ccc3c(ccc4ccccc43)c2)cc1 [OSU03012] (first compound 1 µM, partner dose 1 µM) | 105 | 117 | 112 | 103 | 88 | 89.2 | 93.8 | 105 | 91 | 107 | 56.6 | 102 | 95.5 | 89.6 | 81.8 | 57.1 | 105 | 97.8 | 96.7 |
| Cc1nc(Nc2ncc(C(=O)Nc3c(C)cccc3Cl)s2)cc(N2CCN(CCO)CC2)n1 [dasatanib] + COc1cc(Nc2ncc(F)c(Nc3ccc4c(n3)NC(=O)C(C)(C)O4)n2)cc(OC)c1OC [Tamatinib] (first compound 0.004 µM, partner dose 0.4 µM) | 36.2 | 99.1 | 69.5 | 101 | 77.5 | 81.5 | 68.4 | 37.2 | 69.1 | 62.5 | 79.2 | 63.8 | 76 | 61.2 | 86.1 | 84.9 | 80.4 | 50 | 70.8 |
| C[C@]1(c2nc3c(C(N)=O)cccc3[nH]2)CCCN1 [Veliparib] + Cn1cncc1[C@@](N)(c1ccc(Cl)cc1)c1ccc2c(c1)c(-c1cccc(Cl)c1)cc(=O)n2C [tipifarnib] (first compound 1.4 µM, partner dose 0.01 µM) | 87.6 | 112 | 81.5 | 75.8 | 93.1 | 91.5 | 80 | 56.6 | 91.3 | 89.8 | 93 | 109 | 80.9 | 79.2 | 77.4 | 83.2 | 89.4 | 66.3 | 51.1 |
| NC(=O)Nc1cc(-c2cccc(F)c2)sc1C(=O)N[C@H]1CCCNC1 + Cc1cc(N2CCOCC2)cc2[nH]c(-c3c(NC[C@@H](O)c4cccc(Cl)c4)cc[nH]c3=O)nc12 [BMS536924] (first compound 0.02 µM, partner dose 0.2 µM) | 72.7 | 43.6 | 120 | 100 | 92.3 | 106 | 110 | 110 | 93.4 | 102 | 95.9 | 97.2 | 114 | 96.9 | 95.1 | 101 | 84.2 | 89.7 | 78.4 |
| Cc1nc(Nc2ncc(C(=O)Nc3c(C)cccc3Cl)s2)cc(N2CCN(CCO)CC2)n1 [dasatanib] + CN(NC(=O)CC(=O)NN(C)C(=S)c1ccccc1)C(=S)c1ccccc1 [STA4783] (first compound 0.004 µM, partner dose 0.006 µM) | 45.3 | 68.6 | 41 | 87.4 | 97.1 | 62.1 | 61.6 | 21.8 | 80.6 | 75.7 | 90.9 | 77.1 | 76.1 | 74 | 95 | 71.5 | 93.1 | 73.2 | 79.1 |
| OCCn1cc(-c2cnc3nnn(Cc4ccc5ncccc5c4)c3n2)cn1 + O=C(O)c1ccc(-c2c[nH]c3ncc(-c4ccccc4)cc23)cc1C1CCCC1 [GSK650394] (first compound 1 µM, partner dose 0.16 µM) | 106 | 89 | 82.5 | 109 | 91.8 | 106 | 82 | 118 | 93.2 | 90.6 | 95.3 | 88.7 | 89.3 | 90.4 | 97.1 | 102 | 89.6 | 79.4 | 97.1 |
| C[C@]1(c2nc3c(C(N)=O)cccc3[nH]2)CCCN1 [Veliparib] + CN(NC(=O)CC(=O)NN(C)C(=S)c1ccccc1)C(=S)c1ccccc1 [STA4783] (first compound 1.4 µM, partner dose 0.006 µM) | 63.9 | 40.4 | 70.5 | 93.8 | 96.6 | 69 | 49.7 | 40.5 | 102 | 96.3 | 95.3 | 88.8 | 81.1 | 88.9 | 93.2 | 67.8 | 98.6 | 88.7 | 70.8 |
| OCCn1cc(-c2cnc3nnn(Cc4ccc5ncccc5c4)c3n2)cn1 + Cn1cncc1[C@@](N)(c1ccc(Cl)cc1)c1ccc2c(c1)c(-c1cccc(Cl)c1)cc(=O)n2C [tipifarnib] (first compound 1 µM, partner dose 0.01 µM) | 104 | 80.6 | 78.7 | 95.2 | 94.9 | 93.1 | 80.7 | 95.5 | 95.6 | 99.4 | 99.7 | 99.4 | 103 | 108 | 83.4 | 118 | 110 | 92.3 | 83.3 |
| CO[C@@H]1[C@H](N(C)C(=O)c2ccccc2)C[C@H]2O[C@]1(C)n1c3ccccc3c3c4c(c5c6ccccc6n2c5c31)C(=O)NC4 [Midostaurin] + CN(NC(=O)CC(=O)NN(C)C(=S)c1ccccc1)C(=S)c1ccccc1 [STA4783] (first compound 0.08 µM, partner dose 0.006 µM) | 66.3 | 43.6 | 55 | 70.3 | 86.3 | 75.9 |  | 110 | 84 |  | 77.6 | 109 | 74.3 | 97.3 |  | 107 | 94.8 | 74.8 | 89 |
| CO[C@@H]1[C@H](N(C)C(=O)c2ccccc2)C[C@H]2O[C@]1(C)n1c3ccccc3c3c4c(c5c6ccccc6n2c5c31)C(=O)NC4 [Midostaurin] + Cn1cncc1[C@@](N)(c1ccc(Cl)cc1)c1ccc2c(c1)c(-c1cccc(Cl)c1)cc(=O)n2C [tipifarnib] (first compound 0.08 µM, partner dose 0.01 µM) | 88.5 | 65.3 | 80.1 | 90.5 | 80.5 | 85.1 | 62.1 | 91.8 | 92.7 | 80.4 | 79.5 | 54 | 97.9 | 70.8 | 67.5 | 85.9 | 91.4 | 60.2 | 65.4 |
| C=CCn1c(=O)c2cnc(Nc3ccc(N4CCN(C)CC4)cc3)nc2n1-c1cccc(C(C)(C)O)n1 + Cc1ccc(NC(=O)c2cccc(N(C)C)c2)cc1NC(=O)c1ccc(O)cc1 [ZM336372] (first compound 0.02 µM, partner dose 2 µM) | 104 | 112 | 101 | 83.1 | 84.2 | 102 | 84.9 | 141 | 82.6 | 90.9 | 97.3 | 97.4 | 98.5 | 91.2 | 94.9 | 79.9 | 105 | 69.7 | 68.6 |
| C=CCn1c(=O)c2cnc(Nc3ccc(N4CCN(C)CC4)cc3)nc2n1-c1cccc(C(C)(C)O)n1 + CN(NC(=O)CC(=O)NN(C)C(=S)c1ccccc1)C(=S)c1ccccc1 [STA4783] (first compound 0.02 µM, partner dose 0.006 µM) | 70.7 | 32.7 | 51.6 | 90.6 | 97.2 | 80.2 |  | 66.2 | 107 |  | 97.4 | 77.3 | 82 | 97.6 | 102 | 117 | 87.8 | 100 | 81.9 |
| C=CCn1c(=O)c2cnc(Nc3ccc(N4CCN(C)CC4)cc3)nc2n1-c1cccc(C(C)(C)O)n1 + C[C@@H]1CCN(C(=O)CC#N)C[C@@H]1N(C)c1ncnc2[nH]ccc12 [CP690550] (first compound 0.02 µM, partner dose 1 µM) | 92.1 | 150 | 86.9 | 95.6 | 107 | 87.8 | 102 | 76 | 103 | 103 | 104 | 90.8 | 87.7 | 73 | 95.6 | 108 | 87.8 | 67.4 | 84.3 |
| C=CCn1c(=O)c2cnc(Nc3ccc(N4CCN(C)CC4)cc3)nc2n1-c1cccc(C(C)(C)O)n1 + NCC(=O)Nc1ccc(-n2nc(C(F)(F)F)cc2-c2ccc3c(ccc4ccccc43)c2)cc1 [OSU03012] (first compound 0.02 µM, partner dose 1 µM) | 91 | 119 | 78.9 | 97.2 | 96.5 | 95.1 | 99.6 | 87.5 | 94.2 | 97.3 | 55.2 | 90.3 | 75.8 | 68.4 | 64.8 | 40.9 | 93 | 85.2 | 82.1 |
| CO[C@@H]1[C@H](N(C)C(=O)c2ccccc2)C[C@H]2O[C@]1(C)n1c3ccccc3c3c4c(c5c6ccccc6n2c5c31)C(=O)NC4 [Midostaurin] + CN(C)S(=O)(=O)c1ccc2c(c1)/C(=C/c1cc3c([nH]1)CCCC3)C(=O)N2 [SU6656] (first compound 0.08 µM, partner dose 0.4 µM) | 92.1 | 119 | 109 | 92 | 91.5 | 96.2 | 89.8 | 64.7 | 103 | 101 | 77.3 | 96.6 | 82.8 | 82.5 | 85.3 | 79.4 | 82.9 | 89.9 | 80.5 |
| NC(=O)Nc1cc(-c2cccc(F)c2)sc1C(=O)N[C@H]1CCCNC1 + COc1cc2c(Oc3ccc4[nH]c(C)cc4c3F)ncnc2cc1OCCCN1CCCC1 [cediranib] (first compound 0.02 µM, partner dose 0.4 µM) | 98 | 78.1 | 115 | 116 | 112 | 115 | 135 | 71.7 | 105 | 117 | 103 | 82 | 129 | 100 | 105 | 85.5 | 110 | 153 | 94.1 |
| OCCn1cc(-c2cnc3nnn(Cc4ccc5ncccc5c4)c3n2)cn1 + O=C(Nc1cccc(Cl)c1)Nc1ncc(CCNc2ncnc3ccsc23)s1 [SNS314] (first compound 1 µM, partner dose 0.0008 µM) | 103 | 58.9 | 117 | 105 | 104 | 97.7 | 89.8 | 76.8 | 99.1 | 101 | 94.1 | 97.9 | 93.2 | 87.3 | 99 | 106 | 104 | 94.4 | 116 |
| Cc1nc(Nc2ncc(C(=O)Nc3c(C)cccc3Cl)s2)cc(N2CCN(CCO)CC2)n1 [dasatanib] + OCCn1cc(-c2cnc3nnn(Cc4ccc5ncccc5c4)c3n2)cn1 [PF04217903] (first compound 0.004 µM, partner dose 1 µM) | 60.7 | 92 | 59 | 100 | 115 | 85 | 91.5 | 46 | 76.5 | 88.4 | 86.4 | 89.3 | 82.9 | 68.3 | 104 | 110 | 96.5 | 75.3 | 90.5 |
